Source: PMC4336329 (PLoS ONE, 2015)
Hit rate of the full screen: of about 310,000 compounds, about 14,000 (4.5%) showed an effect of 50% or more. Effects have a minus sign here. This is one part of the list.

Biological target: human ether-à-go-go-related gene (hERG) potassium channel (human, UniProt Q12809)
Assay: primary screen, population patch clamp on CHO cells stably expressing hERG
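Also: peak tail current of the secondary pulse compared with the same well before compound.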

Sequence of human ether-à-go-go-related gene (hERG) potassium channel (Q12809 whole entry, looked up): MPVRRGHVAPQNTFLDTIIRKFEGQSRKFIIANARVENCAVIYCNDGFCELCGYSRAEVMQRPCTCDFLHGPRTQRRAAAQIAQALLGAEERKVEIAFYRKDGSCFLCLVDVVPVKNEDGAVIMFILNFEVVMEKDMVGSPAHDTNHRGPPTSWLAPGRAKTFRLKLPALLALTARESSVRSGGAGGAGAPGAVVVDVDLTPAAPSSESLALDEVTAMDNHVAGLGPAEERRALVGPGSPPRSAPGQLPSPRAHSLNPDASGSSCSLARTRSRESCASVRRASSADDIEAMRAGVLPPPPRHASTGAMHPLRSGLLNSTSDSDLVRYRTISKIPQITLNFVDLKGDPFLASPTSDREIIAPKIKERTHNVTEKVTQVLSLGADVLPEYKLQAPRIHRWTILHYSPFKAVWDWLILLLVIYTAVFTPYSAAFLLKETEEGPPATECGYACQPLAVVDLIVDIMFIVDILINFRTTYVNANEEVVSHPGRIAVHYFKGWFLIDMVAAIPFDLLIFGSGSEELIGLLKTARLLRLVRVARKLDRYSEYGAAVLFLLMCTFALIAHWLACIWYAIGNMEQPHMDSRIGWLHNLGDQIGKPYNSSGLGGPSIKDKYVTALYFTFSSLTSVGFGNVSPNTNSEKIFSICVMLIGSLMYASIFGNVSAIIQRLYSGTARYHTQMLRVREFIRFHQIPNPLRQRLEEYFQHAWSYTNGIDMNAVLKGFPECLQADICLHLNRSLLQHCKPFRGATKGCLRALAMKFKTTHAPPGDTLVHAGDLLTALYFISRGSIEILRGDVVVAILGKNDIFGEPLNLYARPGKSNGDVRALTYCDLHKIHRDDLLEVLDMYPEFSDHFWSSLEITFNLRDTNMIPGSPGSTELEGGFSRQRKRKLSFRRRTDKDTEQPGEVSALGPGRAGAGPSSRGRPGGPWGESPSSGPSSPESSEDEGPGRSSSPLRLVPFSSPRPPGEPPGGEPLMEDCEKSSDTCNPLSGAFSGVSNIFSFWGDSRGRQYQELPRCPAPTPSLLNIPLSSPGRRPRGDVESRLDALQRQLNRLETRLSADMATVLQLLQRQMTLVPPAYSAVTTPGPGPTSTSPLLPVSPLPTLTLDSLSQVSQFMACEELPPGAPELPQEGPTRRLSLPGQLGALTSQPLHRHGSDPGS

Row | SMILES | hERG current change (%, negative = inhibition) at 10uM [%]
1 | O=C(Nc1nncs1)c1cc(S(=O)(=O)N2CCCCC2)ccc1Cl | 10.2
2 | Cc1ccc(Nc2nnc(SCC(=O)NC3CCS(=O)(=O)C3)s2)c(C)c1 (stereo not shown) | 10.6
3 | CCn1ccnc1CN1CCC(CO)(CCOc2ccccc2)CC1 | -8.02
4 | Cc1ccccc1-c1c(C)oc2cc(O)ccc2c1=O | -4.58
5 | Cc1cccc(-n2ncc(Cl)c(Cl)c2=O)c1 | 22.2
6 | O=C(Cn1cnc([N+](=O)[O-])c1)NCc1ccc(F)cc1 | 7.86
7 | O=C(COc1cc(Cl)c(Cl)cc1Cl)N1CCN(c2ccccn2)CC1 | 16
8 | Cc1cccn2cc(CCNC(=O)c3ccc(Br)o3)nc12 | -22
9 | O=C(CN1C(=O)c2ccccc2C1=O)N1CCN=C1c1ccccc1 | 6.66
10 | CCOc1ccc(NC(=O)CC2SC(N)=NC2=O)c([N+](=O)[O-])c1 (stereo not shown) | 8.5
11 | CCc1nc(N)c(C#N)c(-c2ccc(F)cc2)c1C | 8.14
12 | c1ccc(N=P(c2nc3ccccc3o2)(N2CCOCC2)N2CCOCC2)cc1 | 9.22
13 | O=C(CSc1nc(-c2ccco2)cc(C(F)(F)F)n1)N1CCN(c2cccc(Cl)c2)CC1 | 0.43
14 | O=C(Nc1nc2ccccc2n1CCN1CCOCC1)c1ccc(Cl)cc1 | 1.72
15 | Cc1ccccc1OCC(=O)Nc1ccc(NC(=O)c2ccco2)cc1 | 9.7
16 | Cc1cccn2c(=O)c3cc(C(=O)N4c5ccccc5CC4C)n(C)c3nc12 (stereo not shown) | 8.08
17 | CC(=O)Nc1cccc(C(=O)NCCc2ccco2)c1 | 9.48
18 | N#Cc1c(N2C(=O)C3C4C=CC(C4)C3C2=O)sc2c1CCC2 (stereo not shown) | 5.25
19 | N=Cc1c(O)n(-c2ccccc2)c(=O)n(-c2ccccc2)c1=O | 13.1
20 | O=C(Oc1cccc([N+](=O)[O-])c1)C1CCN(C(=O)c2ccc(F)cc2)CC1 | -41
21 | Cc1onc(-c2ccccc2Cl)c1C(=O)Nc1cccc2cccnc12 | -4.17
22 | CCN1CCN(c2ccc(S(=O)(=O)N3CCCCC3)cc2N)CC1 | -11.5
23 | CC/C(=N/O)C(=O)c1ccc(Br)cc1 | 2.19
24 | CSc1ccc(CN2CCC(Oc3cccc(C(=O)N4CCCC4)c3)CC2)cc1 | -60.7
25 | CC1(C)C2CCC1(CS(=O)(=O)Nc1cccc(S(N)(=O)=O)c1)C(=O)C2 (stereo not shown) | 13.3
